Assay results from PubChem BioAssay AID624418 (National Center for Advancing Translational Sciences (NCATS), 2012).
The campaign covered roughly 410,000 compounds. About 530 (0.13%) were called active. This list was built around the results that the source calls inconclusive (neither active nor inactive); the mix of calls is not that of the screen. Calls come from the whole dose curve; as a rule, active = well fitted inhibition curve with a large enough effect; inconclusive = small, poorly fitted or top-dose-only effect, or another doubt; inactive = no such curve, though single readings can be large or run the other way. Where the call is inconclusive, the potency comes from a doubtful curve fit.

Assay: qHTS of GLP-1 Receptor Inverse Agonists: Cytotox Screen
Conditions: HEK293 cAMP-luciferase reporter cells, luminescence, 24 h; series mostly up to 38.3 µM
Summary of the method: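 Quantitative HTS format, 1536 wells, 200 cells/uL seeded. Compounds: 23 nL, 24 h, 37 °C. Detection: luciferase reagent, luminescence at 12 min RT; decreased signal taken as cytotoxic.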
Potency is the fitted concentration of half-maximal effect.

Compound	Potency
Cc1ccc2c(ccc[n+]2CC(=O)c2ccccc2)c1	inactive
C=CCC[C@@H](Cc1ccc(F)cc1)C(=O)OC[C@H](Cc1c[nH]c2ccccc12)NC(=O)[C@H](CC=C)CC(=O)NCCO	inconclusive: 10 µM [inhibitor, partial curve, poor fit]
COc1ccccc1-c1cc(C(F)(F)F)nc(S(=O)(=O)CCCC(=O)N2CCCCC2C)n1 (stereo not drawn)	inconclusive: 10 µM [inhibitor, partial curve, poor fit]
O=[N+]([O-])c1ccc(Oc2cccc3cccnc23)c([N+](=O)[O-])c1	inactive
COc1ccc(C2Nc3ccccc3C(=O)N2c2ccc(C)cc2)cc1Cn1nnc2ccccc21 (stereo not drawn)	inconclusive: 28.2 µM [inhibitor, single point]
Cc1ccc(NC(=O)C(C)c2ccc([N+](=O)[O-])cc2)cc1Cl (stereo not drawn)	inconclusive: 12.6 µM [inhibitor, single point]
C=CS(=O)(=O)c1sc(Cl)c(N2CCOCC2)c1[N+](=O)[O-]	inconclusive: 12.6 µM [inhibitor, partial curve, poor fit]
CSc1ncc(CN2CCN(C3CCCC3)C(CCO)C2)cn1 (stereo not drawn)	inconclusive: 0.501 µM [inhibitor, full curve, poor fit]
CCc1ccc2c(c1)c1nnc(NN)nc1n2CC	inconclusive: 28.2 µM [inhibitor, single point]
Cc1cc(C(=O)N/N=C/c2ccc([N+](=O)[O-])s2)c2ccccc2n1	inconclusive: 17.8 µM [inhibitor, single point]
COc1ccccc1-n1cc(-c2ccc(C)cc2)nc1S(=O)(=O)CC(=O)Nc1ccccc1C(F)(F)F	inconclusive: 10 µM [inhibitor, partial curve]
CCOc1ccc(NC(=O)CN2CCCC2c2cccs2)cc1S(=O)(=O)N1CCCCC1 (stereo not drawn)	inconclusive: 7.94 µM [inhibitor, partial curve, poor fit]
CN1CCN(c2ccc(-c3cc(NC=O)c4ncc(-c5ccc(F)c(Cl)c5)n4c3)cc2)CC1	inconclusive: 11.2 µM [inhibitor, single point]
COc1ccccc1Nc1c2c(nc3ccc(NC(=O)/C=C/c4cccc(OC)c4OC)cc13)CCCC2	inconclusive: 12.6 µM [inhibitor, partial curve, poor fit]
COc1cc(OC)c(NC(c2nnc(-c3ccccc3)o2)c2ccc(F)cc2Cl)cc1Cl (stereo not drawn)	inactive
CCCCCc1ccc(OCCCC[n+]2ccc(C)cc2)c(CCCCC)c1	inconclusive: 7.94 µM [inhibitor, partial curve, poor fit]
COc1cccc(C(=O)Nc2cccc(OCC(=O)c3ccccc3)c2)c1	inconclusive: 28.2 µM [inhibitor, single point]
OC1(c2nc3ccccc3[nH]2)CCCCC1	inconclusive: 5.01 µM [inhibitor, partial curve]
CC(C)(C)c1ccc(-c2cc(-c3ccccc3O)[nH]n2)cc1	inconclusive: 20 µM [inhibitor, single point]
Cn1c(N)c(C(=O)COC(=O)COc2cc(Cl)c(Cl)cc2Cl)c(=O)n(C)c1=O	inconclusive: 11.2 µM [inhibitor, single point]
COc1ccc(C2c3ccc4ccccc4c3Oc3ncn(CCCN(C)C)c(=N)c32)cc1 (stereo not drawn)	inconclusive: 11.2 µM [inhibitor, single point]

Compound	Potency
CCNC(=O)NC(=O)CN(C)c1ccccc1	inactive
CCn1cc(CNCc2ccc(OCC(O)CN(C)Cc3ccccc3)cc2)cn1 (stereo not drawn)	inconclusive: 10 µM [inhibitor, single point]
CC1CC(C)CN(CCCNC(=O)c2csc3c2CCCC3)C1 (stereo not drawn)	inconclusive: 28.2 µM [inhibitor, single point]
COc1cc([N+](=O)[O-])cc(/C=N/NC(=O)C(C)Nc2cccc3ccccc23)c1O (stereo not drawn)	inconclusive: 10 µM [inhibitor, partial curve, poor fit]
COc1ccc(-c2sc3cc4c(cc3c2C#CC2(N)CCCCC2)OCO4)cc1	inconclusive: 31.6 µM [inhibitor, single point]
O=C(O)CCN1C(=O)c2ccc(NC(=O)Cc3ccc(Cl)cc3)cc2C1=O	inactive
CCOC(=O)CSc1nnc(-c2ccccc2NC(=O)c2ccccc2)o1	inactive
COCCNC(=S)NCCc1ccc(Cl)cc1Cl	inconclusive: 11.2 µM [inhibitor, partial curve, poor fit]
CC1(C)Cc2c(c(N3CCCC3)nc3sc4c(N5CCN(CCO)CC5)ncnc4c23)CO1	inconclusive: 8.91 µM [inhibitor, single point]
Cc1cc(C)nc(SCCCNCc2ccc(Br)cc2)n1	inactive
Cc1cc(C(=O)N/N=C/c2ccc(O)c([N+](=O)[O-])c2)c(C)n1-c1ccc(F)cc1	inconclusive: 28.2 µM [inhibitor, single point]
Cn1cc([N+](=O)[O-])c(C(=O)Nc2nc(-c3ccc(Cl)cc3)cs2)n1	inconclusive: 2.51 µM [inhibitor, partial curve, poor fit]
Cc1nnc(NC(=O)c2oc3ccccc3c2C)s1	inactive
O=C(NCc1ccc2c(c1)OCO2)c1ccc(N2CCCCCC2)c([N+](=O)[O-])c1	inconclusive: 10 µM [inhibitor, partial curve, poor fit]
c1ccc(-c2cn3c(n2)CCc2ccc4cccnc4c2-3)cc1	inconclusive: 31.6 µM [inhibitor, single point]
O=C(NCc1ccc(F)cc1)C1CCN(C(=O)c2ccc(-n3ccc4ccccc43)s2)CC1	inactive
CCOC(=O)c1cccc(NC(=O)C2CCCN(S(=O)(=O)c3cnc[nH]3)C2)c1 (stereo not drawn)	inconclusive: 4.47 µM [inhibitor, partial curve]
Cc1ccc(-c2cc(C(=O)N3CC(C)CC(C)C3)c3ccccc3n2)o1 (stereo not drawn)	inactive
CCOC(=O)c1ccc(NC(=S)N(CCN(C)C)Cc2cccs2)cc1	inconclusive: 15.8 µM [inhibitor, single point]
CC(=O)c1sc(NC(=O)CCS(=O)(=O)c2ccc(Cl)cc2)nc1C	inconclusive: 28.2 µM [inhibitor, single point]
O=C(NCCc1ccccc1)C(=O)NCC1OCCN1S(=O)(=O)c1ccccc1 (stereo not drawn)	inconclusive: 0.501 µM [inhibitor, full curve, poor fit]

Compound	Potency
O=C(COc1ccc(/C=N/NC(=O)c2cc3ccccc3o2)cc1Cl)Nc1ccccc1	inconclusive: 6.31 µM [inhibitor, partial curve, poor fit]
COc1ccccc1/C=C/C1(C(=O)NC2CCCC2)CC(=O)N1c1ccc(C)cc1 (stereo not drawn)	inconclusive: 20 µM [inhibitor, single point]
Cc1nnc(NC(=O)c2nc(S(=O)(=O)Cc3ccccc3C)ncc2Cl)s1	inconclusive: 11.2 µM [inhibitor, single point]
COc1cc(/C=C2\SC(=S)N(NS(=O)(=O)c3ccc(C)cc3)C2=O)cc(OC)c1OC	inconclusive: 7.94 µM [inhibitor, partial curve, poor fit]
O=C(Nc1ccc(Nc2ccncc2)cc1)c1ccc([N+](=O)[O-])cc1	inconclusive: 14.1 µM [inhibitor, partial curve, poor fit]
CC(C)(C)c1ccc(C(=O)NNC(=O)c2cccc(-n3cnnn3)c2)cc1	inconclusive: 2.82 µM [inhibitor, full curve]
Cc1onc(-c2ccccc2)c1C(=O)NC(=S)NNC(=O)c1ccc(O)cc1O	inactive
COc1ccc(C(=O)Nc2ccc3[nH]c(-c4cccc(OC)c4)cc(=O)c3c2)cc1	inactive
CC1CN(Cc2ccccc2)c2ccccc2NC1=S (stereo not drawn)	inconclusive: 28.2 µM [inhibitor, single point]
COc1cccc(OC)c1-c1nn2c(-c3cc(-c4ccccc4)n[nH]3)nnc2s1	inconclusive: 11.2 µM [inhibitor, single point]
CC(=O)N(CCC(Cc1ccccc1)c1ccc2c(c1)OCO2)Cc1ccc(Cl)cc1 (stereo not drawn)	inconclusive: 28.2 µM [inhibitor, single point]
CC(NC(=S)Nc1c(Br)cccc1OC(F)F)C(C)(C)C (stereo not drawn)	inconclusive: 31.6 µM [inhibitor, single point]
Cc1ccc(CNC(=O)CCCn2nc(C)n3ccnc3c2=O)cc1	inactive
Cn1c(=S)[nH]c2c(c1=O)C(C)(C)Cc1ccccc1-2	inconclusive: 2 µM [inhibitor, full curve]
COc1ccccc1NC(=O)C1CCCN(c2nnc(C)c3c(C)n(-c4ccccc4)nc23)C1 (stereo not drawn)	inactive
COc1ccc(NC2=CC(=S)NC(C)(C)C2)cc1	inconclusive: 28.2 µM [inhibitor, single point]
O=C(Nc1ccc(-c2noc(-c3cccs3)n2)cc1)c1cccnc1	inconclusive: 10 µM [inhibitor, partial curve]
CN1CCN(c2ccc(NC(=O)c3ccc(-c4ccc(Cl)cc4)o3)cc2)CC1	inconclusive: 31.6 µM [inhibitor, single point]
O=C(NC(Cc1c[nH]c2ccccc12)C(=O)N/N=C/c1ccc(Br)cc1)c1cccs1 (stereo not drawn)	inconclusive: 25.1 µM [inhibitor, partial curve, poor fit]
CCOC(=O)c1sc(NC(=O)c2c(C)nn(Cc3ccccc3)c2C)cc1C	inconclusive: 11.2 µM [inhibitor, partial curve, poor fit]
COc1ccc(NS(=O)(=O)c2ccc(-c3coc(C)n3)cc2)c(OC)c1	inactive
